# From the supplement of paper PMC6531468
# This is one part of the list. Values come from read counts of a selection and are noisy. Scores sum up all selected molecules that hold the word; the word was not tested alone.
# Columns and labels:
# Assay in all cases: 6-mer SELEX enrichment z-score vs GST control; IMP3 is the RNA-binding protein IGF2BP3; higher = more enriched by binding
# IMP3 KH1-4 = conditions: construct: KH1-4 (164-579); SELEX round: R4
# Procedure: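 SELEX-seq with GST-tagged IMP3 KH1-4 (Pro164-Lys579) and an N40 RNA pool, round 4. 6-mer z-score of sequence-tag enrichment normalised to the corresponding GST SELEX round; RNA k-mers written as DNA (T for U).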
# IMP3 RRM1-2 = conditions: construct: RRM1-2 (1-163); SELEX round: R2
# Sequence of IMP3 RRM1-2 (chain, as listed by the source): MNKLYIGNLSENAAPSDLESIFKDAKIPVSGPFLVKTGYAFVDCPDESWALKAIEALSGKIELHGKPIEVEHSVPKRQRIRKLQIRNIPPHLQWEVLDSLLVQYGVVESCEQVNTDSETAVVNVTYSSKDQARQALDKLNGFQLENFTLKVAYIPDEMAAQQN
# Procedure: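 SELEX-seq with GST-tagged IMP3 RRM1-2 (Met1-Asn163) and an N40 RNA pool, round 2. 6-mer enrichment z-score normalised to GST SELEX. RNA written as DNA (T = U).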
# IMP3 full-length = IMP3 full-length (UniProt O00425); conditions: construct: FL IMP3 (1-579); SELEX round: R4
# Sequence of UniProt O00425 (O00425 whole entry): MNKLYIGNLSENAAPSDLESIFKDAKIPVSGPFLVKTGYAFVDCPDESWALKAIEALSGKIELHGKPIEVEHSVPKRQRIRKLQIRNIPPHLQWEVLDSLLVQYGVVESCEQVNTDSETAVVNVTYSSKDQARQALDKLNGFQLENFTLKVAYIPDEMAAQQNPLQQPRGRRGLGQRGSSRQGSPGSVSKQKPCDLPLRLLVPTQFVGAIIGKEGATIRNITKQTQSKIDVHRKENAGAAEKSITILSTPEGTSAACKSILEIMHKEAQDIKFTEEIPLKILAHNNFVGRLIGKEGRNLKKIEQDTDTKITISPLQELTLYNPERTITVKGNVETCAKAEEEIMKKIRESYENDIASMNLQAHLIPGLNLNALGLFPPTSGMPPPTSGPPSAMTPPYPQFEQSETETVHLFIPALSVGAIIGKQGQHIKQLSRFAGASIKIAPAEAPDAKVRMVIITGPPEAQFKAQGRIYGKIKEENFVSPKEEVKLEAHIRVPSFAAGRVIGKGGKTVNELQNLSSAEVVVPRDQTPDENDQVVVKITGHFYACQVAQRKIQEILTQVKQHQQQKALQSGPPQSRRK
# Procedure: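 SELEX-seq with GST-tagged full-length IMP3 and an N40 RNA pool, round 4. Each 6-mer is scored as an enrichment z-score of sequence tags containing it, normalised to the matching GST SELEX round. RNA written as DNA (T = U).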
# IMP3 KH1-2 = conditions: construct: KH1-2 (164-376); SELEX round: R4
# Sequence of IMP3 KH1-2 (chain, as listed by the source): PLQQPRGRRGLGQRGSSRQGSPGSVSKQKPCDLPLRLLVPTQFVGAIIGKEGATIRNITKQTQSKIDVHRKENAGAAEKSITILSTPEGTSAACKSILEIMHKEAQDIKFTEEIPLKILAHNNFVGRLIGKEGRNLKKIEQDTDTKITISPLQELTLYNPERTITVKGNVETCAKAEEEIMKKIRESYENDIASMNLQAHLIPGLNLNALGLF
# Procedure: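 SELEX-seq with GST-tagged IMP3 KH1-2 (Pro164-Phe376) and an N40 RNA pool, round 4 (stringent 300/600 mM KCl washes). 6-mer z-score of sequence-tag enrichment normalised to the corresponding GST SELEX round; RNA k-mers written as DNA (T for U).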
# IMP3 KH3-4 = conditions: construct: KH3-4 (377-579); SELEX round: R4
# Sequence of IMP3 KH3-4 (chain, as listed by the source): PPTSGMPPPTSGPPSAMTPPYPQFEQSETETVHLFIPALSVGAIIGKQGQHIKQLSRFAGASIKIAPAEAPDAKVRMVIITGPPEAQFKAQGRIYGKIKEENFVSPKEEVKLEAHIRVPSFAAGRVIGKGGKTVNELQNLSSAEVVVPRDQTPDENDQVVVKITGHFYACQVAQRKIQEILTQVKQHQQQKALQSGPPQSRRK
# Procedure: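 SELEX-seq with GST-tagged IMP3 KH3-4 (Pro377-Lys579) and an N40 RNA pool, round 4. 6-mer z-score of sequence-tag enrichment normalised to the corresponding GST SELEX round; RNA k-mers written as DNA (T for U).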
# Sequence of IMP3 KH1-4 (chain, as listed by the source): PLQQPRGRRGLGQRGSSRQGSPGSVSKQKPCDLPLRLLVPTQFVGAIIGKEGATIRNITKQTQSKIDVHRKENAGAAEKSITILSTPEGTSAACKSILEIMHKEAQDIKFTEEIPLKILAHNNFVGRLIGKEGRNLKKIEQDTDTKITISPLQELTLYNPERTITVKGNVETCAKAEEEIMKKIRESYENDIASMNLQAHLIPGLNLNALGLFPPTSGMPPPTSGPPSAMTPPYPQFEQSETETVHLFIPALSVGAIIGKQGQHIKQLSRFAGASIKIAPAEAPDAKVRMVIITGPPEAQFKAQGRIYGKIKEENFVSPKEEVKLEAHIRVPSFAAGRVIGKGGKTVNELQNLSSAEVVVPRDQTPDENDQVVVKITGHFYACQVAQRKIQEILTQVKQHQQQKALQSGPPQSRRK
Sequence,6-mer SELEX enrichment z-score (IMP3 KH1-4),6-mer SELEX enrichment z-score (IMP3 RRM1-2),6-mer SELEX enrichment z-score (IMP3 full-length),6-mer SELEX enrichment z-score (IMP3 KH1-2),6-mer SELEX enrichment z-score (IMP3 KH3-4)
GTATTT,0.028,0.292,-0.059,0.045,0.276
CCGCAA,-0.388,-0.345,0.073,-0.093,-0.784
CAAATA,1.08,-0.426,-0.09,1.32,1.57
AGTTAC,0.286,0.209,-0.023,0.041,-0.017
TGGAAC,-0.145,-0.354,-0.253,-0.383,-0.395
GCAAAA,-0.611,-1.2,-0.746,-0.556,-0.184
AATTGC,0.286,-0.377,-0.461,0.204,0.365
TACAGG,1.06,0.446,0.854,0.846,0.998
CTTAAC,0.131,-0.356,-0.606,0.148,0.139
TCTTCT,0.559,0.527,0.277,0.558,0.462
CCCGAC,-2.65,-1.07,-1.83,-2.26,-2.87
GGGATC,-0.138,0.309,0.223,-0.022,-0.06
TCACCA,0.783,1.65,0.968,0.799,-0.089
CAGGTT,0.161,0.52,0.316,0.132,0.153
TATAAT,1.66,0.028,0.301,1.47,2.53
TCCGGG,-0.68,-0.127,0.111,-0.421,-0.441
GGAAGT,0.633,-0.258,0.085,0.516,0.554
CCGGAT,0.042,-0.597,-0.06,0.037,-0.006
TTTACC,-0.225,-0.27,-0.588,-0.211,-0.354
TGCAGA,0.332,-0.011,0.27,0.306,0.252
CATCCG,-0.17,0.238,0.69,-0.095,-0.863
TAGGCC,0.263,0.15,0.256,0.2,0.219
GGAGAT,0.828,-0.3,0.089,0.719,0.976
CGCCCT,-0.552,-0.295,-0.45,-0.431,-0.793

Sequence,6-mer SELEX enrichment z-score (IMP3 KH1-4),6-mer SELEX enrichment z-score (IMP3 RRM1-2),6-mer SELEX enrichment z-score (IMP3 full-length),6-mer SELEX enrichment z-score (IMP3 KH1-2),6-mer SELEX enrichment z-score (IMP3 KH3-4)
CCCTCT,-0.073,0.087,-0.334,-0.046,-0.443
CGCCTG,-0.553,-0.174,-0.288,-0.35,-0.73
TACTCC,-0.698,-0.114,-0.773,-0.606,-0.886
AGATGC,-0.123,-0.48,-0.33,-0.112,0.089
TGTTAC,0.119,0.106,-0.135,-0.013,0.008
CCAATC,-0.812,0.987,-0.218,-0.798,-1.39
TCTGCC,-0.202,-0.079,-0.178,-0.108,-0.516
CGAGTG,-2.46,-0.145,-1.32,-2.24,-2.09
AGTTGC,-0.211,0.246,-0.142,-0.274,-0.24
GCAGTC,1.11,0.447,1.15,0.756,0.518
GTTCGT,-0.208,0.369,-0.095,-0.187,-0.06
TTGGCC,0.06,0.072,0.135,-0.013,-0.092
CTCAAG,-1.21,0.129,-0.475,-1.07,-1.05
TCTACT,0.427,0.274,0.003,0.367,0.328
TTGTCC,0.111,0.071,-0.176,-0.031,-0.115
TTCAAA,0.131,0.487,0.241,0.407,0.172
GCGATG,-0.402,-0.425,-0.25,-0.385,-0.217
TGCCAT,0.43,0.21,0.31,0.333,0.138
GGCGGT,0.24,0.365,0.649,0.35,0.458
GAACAC,0.457,2.48,1.12,0.326,-0.077
TTTCGA,-0.836,0.133,-0.556,-0.717,-0.595
CTTGAG,-1.49,-0.048,-0.892,-1.35,-1.22
CGTCCG,-0.749,0.056,0.393,-0.522,-0.762
TGGCCG,0.485,-0.161,0.594,0.422,0.183

Sequence,6-mer SELEX enrichment z-score (IMP3 KH1-4),6-mer SELEX enrichment z-score (IMP3 RRM1-2),6-mer SELEX enrichment z-score (IMP3 full-length),6-mer SELEX enrichment z-score (IMP3 KH1-2),6-mer SELEX enrichment z-score (IMP3 KH3-4)
CGTGCC,-1.05,-0.201,-0.267,-0.919,-1.17
TAGCAT,0.262,0.423,0.409,0.163,0.202
CTACTT,0.233,0.285,-0.224,0.298,0.228
GACCGG,-0.345,-1.01,-0.041,-0.304,-0.553
TACGTC,-0.24,0.207,0.069,-0.311,-0.296
TACCAG,-0.334,-0.126,-0.333,-0.449,-0.529
AATTCG,-0.073,-0.293,-0.291,-0.179,0.009
CACAGC,-0.042,1.58,1.61,0.151,-0.613
GGCTCT,0.006,0.611,0.455,0.091,0.176
GAGGAT,0.832,-0.28,0.114,0.63,0.897
CTGGCC,0.032,-0.18,0.207,0.069,-0.286
TCGGCT,0.807,0.662,1.21,0.603,0.817
TGATGA,1.24,-0.665,-0.389,0.754,1.44
GTCCGT,-0.165,0.187,0.202,-0.155,-0.288
AAGGTA,-0.468,-0.262,-0.36,-0.47,-0.147
ACTTAC,0.592,0.003,-0.189,0.738,0.361
TCCATC,0.542,0.893,0.692,0.484,-0.094
TCTGTC,0.625,0.306,0.46,0.428,0.271
TAGTAA,0.013,-0.216,-0.373,-0.062,0.305
TAACAC,1.41,0.793,0.66,1.84,1.51
TGACTA,0.129,-0.433,-0.518,0.127,0.399
ACAACC,-0.867,0.506,-0.656,-0.297,-1.67
TGCTAG,0.046,0.13,-0.047,0.014,0.106
TCATTC,1.34,1.94,1.77,1.32,0.923

Sequence,6-mer SELEX enrichment z-score (IMP3 KH1-4),6-mer SELEX enrichment z-score (IMP3 RRM1-2),6-mer SELEX enrichment z-score (IMP3 full-length),6-mer SELEX enrichment z-score (IMP3 KH1-2),6-mer SELEX enrichment z-score (IMP3 KH3-4)
GTTTGG,-0.122,0.393,0.049,-0.027,0.127
AGGGGG,1.55,0.026,0.51,2.34,1.67
CGCTCT,-0.136,0.186,0.18,0.011,-0.134
AGACTC,-0.771,-0.345,-0.647,-0.627,-0.787
CAGTGA,0.361,-0.147,0.278,0.24,0.169
ATTGTC,0.362,0.233,0.28,0.201,0.341
CAGTGT,-0.402,0.259,-0.086,-0.449,-0.425
TGGAGA,0.444,-0.449,-0.185,0.225,0.389
CAATTT,1.05,0.272,0.371,1.09,1.33
CATAGA,0.797,0.552,0.857,0.744,0.982
GTAATG,0.275,-0.37,-0.275,0.108,0.482
AGAATT,0.931,-0.537,-0.207,0.775,1.68
ATATCC,-0.314,-0.265,-0.643,-0.254,-0.499
TGGTAC,-0.512,0.491,0.138,-0.443,-0.439
GATTAG,0.593,-0.219,-0.034,0.42,0.88
CTATAT,1.55,0.097,0.341,1.37,1.67
GGCCTG,0.046,-0.091,0.226,0.09,-0.052
TTCACT,1.15,1.06,0.857,1.19,0.87
CAGGCG,-0.009,0.465,1.03,0.102,0.075
GTCTCA,-0.414,0.61,0.515,-0.236,-0.208
GCCTGA,-0.876,-0.617,-0.912,-0.828,-0.913
GCCCGG,-1.06,-0.524,-0.055,-0.806,-1.09
GTGCCT,-1.03,0.2,-0.494,-0.91,-0.898
AAGTGG,0.398,-0.265,0.02,0.268,0.545

Sequence,6-mer SELEX enrichment z-score (IMP3 KH1-4),6-mer SELEX enrichment z-score (IMP3 RRM1-2),6-mer SELEX enrichment z-score (IMP3 full-length),6-mer SELEX enrichment z-score (IMP3 KH1-2),6-mer SELEX enrichment z-score (IMP3 KH3-4)
GCTCCC,0.121,-0.156,0.13,0.154,-0.546
TGGTTC,-0.141,0.493,0.149,-0.085,0.042
TTCGCT,0.295,0.312,0.128,0.356,0.328
GGGTGG,0.478,0.276,0.495,0.807,0.676
CTCGTA,-0.672,0.091,-0.275,-0.592,-0.564
ACGGTA,-0.442,-0.148,-0.175,-0.509,-0.292
CTGGAT,0.329,-0.034,-0.017,0.176,0.326
ACCGGA,-0.409,-1.44,-0.557,-0.513,-0.684
AGTCCA,0.623,0.023,0.353,0.326,0.115
CATCTG,0.177,0.55,0.932,0.101,-0.231
CACTTG,-0.224,0.531,0.162,-0.312,-0.471
AGGGCG,-1.36,0.169,-0.102,-0.965,-0.78
TGGCTT,0.189,0.518,0.251,0.213,0.437
CTGGAC,-0.316,-0.496,-0.316,-0.331,-0.598
GGGATT,0.474,0.049,0.283,0.478,0.696
TGCGGT,0.101,0.295,0.274,0.123,0.212
TTACCT,-0.727,-0.142,-0.736,-0.618,-0.708
GAGATT,0.436,-0.299,-0.131,0.318,0.794
GAAATC,-0.554,-0.595,-0.67,-0.714,-0.631
CTGGAG,-0.499,-0.112,-0.205,-0.395,-0.431
ATTAGA,1.1,-0.263,0.065,0.805,1.7
ATTCAG,0.872,1.24,1.28,0.793,0.812
CTGCAT,0.495,0.362,0.622,0.384,0.152
CCGCGA,-1.24,-0.942,-0.548,-1.01,-1.27
